IC50 is the fitted dose that halves viability relative to control wells, and lower means more sensitive; a limit (>, <) means that the fit lies beyond the doses tested. AUC, from the same fit, is the share of area under the viability curve across the 256-fold dose range; the more sensitive the line, the further below 1. For part of these data: An inferred top dose is not printed in the source and was worked back from the curve model.
How the values were obtained:
Assay in all cases: Viability of human cancer cell lines after 72 h of drug (GDSC screen)
AG-014699 = compound: CNCc1ccc(-c2[nH]c3cc(F)cc4c3c2CCNC4=O)cc1 [AG-014699]; settings: top dose 5 µM; top dose inferred
Description: (§1)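 Human cancer cell lines in 384-well plates, medium with 10% serum, drug for 72 h over a 256-fold dose range (nine 2-fold or five 4-fold steps up to the top dose). Adherent lines were fixed and stained with the nucleic acid dye Syto60, suspension lines read with resazurin; signal relative to control wells, capped at 0 and 100%. One two-parameter sigmoid per drug and line, fitted in a mixed model over all curves with the slope shared within a line.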

QL-XI-92 = compound: C=CC(=O)Nc1cc(NC(=O)c2ccc(C)c(NC(=O)c3ccno3)c2)cc(C(F)(F)F)c1 [QL-XI-92]; settings: top dose 10.24 µM; top dose inferred
Description: as §1

NU-7441 = compound: O=c1cc(N2CCOCC2)oc2c(-c3cccc4c3sc3ccccc34)cccc12 [NU-7441]; settings: top dose 2 µM; top dose inferred
Description: as §1

Vinorelbine = compound: CCC1=C[C@@H]2CN(C1)Cc1c([nH]c3ccccc13)[C@@](C(=O)OC)(c1cc3c(cc1OC)N(C)[C@H]1[C@@](O)(C(=O)OC)[C@H](OC(C)=O)[C@]4(CC)C=CCN5CC[C@]31[C@@H]54)C2 [Vinorelbine]; settings: top dose 0.064 µM; top dose inferred
Description: as §1

WHI-P97 = compound: COc1cc2ncnc(Nc3cc(Br)c(O)c(Br)c3)c2cc1OC [WHI-P97]; settings: top dose 10.24 µM; top dose inferred
Description: as §1

S-Trityl-L-cysteine = compound: N[C@@H](CSC(c1ccccc1)(c1ccccc1)c1ccccc1)C(=O)O [S-Trityl-L-cysteine]; settings: top dose 5.12 µM; top dose inferred
Description: as §1

XL-184 = compound: COc1cc2nccc(Oc3ccc(NC(=O)C4(C(=O)Nc5ccc(F)cc5)CC4)cc3)c2cc1OC [XL-184]; settings: top dose 5.12 µM; top dose inferred
Description: as §1

Phenformin = compound: N=C(N)NC(=N)NCCc1ccccc1 [Phenformin]; settings: top dose 4000 µM; top dose inferred
Description: as §1

Erlotinib = compound: C#Cc1cccc(Nc2ncnc3cc(OCCOC)c(OCCOC)cc23)c1 [Erlotinib]; settings: top dose 2 µM
Description: as §1

Gefitinib = compound: COc1cc2ncnc(Nc3ccc(F)c(Cl)c3)c2cc1OCCCN1CCOCC1 [Gefitinib]; settings: top dose 0.5 µM
Description: as §1

EHT 1864 = compound: O=c1cc(CN2CCOCC2)occ1OCCCCCSc1ccnc2cc(C(F)(F)F)ccc12 [EHT 1864]; settings: top dose 10 µM; top dose inferred
Description: as §1

Cell Line	AUC (AG-014699)	IC50 (AG-014699) [µM]	AUC (QL-XI-92)	IC50 (QL-XI-92) [µM]	AUC (NU-7441)	IC50 (NU-7441) [µM]	AUC (Vinorelbine)	IC50 (Vinorelbine) [µM]	AUC (WHI-P97)	IC50 (WHI-P97) [µM]	AUC (S-Trityl-L-cysteine)	IC50 (S-Trityl-L-cysteine) [µM]	AUC (XL-184)	IC50 (XL-184) [µM]	AUC (Phenformin)	IC50 (Phenformin) [µM]	AUC (Erlotinib)	IC50 (Erlotinib) [µM]	AUC (Gefitinib)	IC50 (Gefitinib) [µM]	AUC (EHT 1864)	IC50 (EHT 1864) [µM]
KE-37 (lymphoblastic leukaemia, suspension)	0.989	> 5	0.894	7.16	0.99	> 2	0.538	0.00494	0.944	> 10.2	0.526	0.369	0.93	5.07	0.517	275	0.991	> 2	0.989	> 0.5	0.957	> 10
KGN (ovary, adherent)	0.928	> 5	0.949	> 10.2	0.918	> 2	0.552	0.00571	0.949	> 10.2	0.627	0.775	0.757	2.12	0.281	51.9	0.946	> 2	0.981	> 0.5	0.898	> 10
KMOE-2 (acute myeloid leukaemia, suspension)	0.985	> 5	0.873	8.06	0.929	> 2	0.83	0.0345	0.958	> 10.2	0.934	> 5.12	0.97	> 5.12	0.757	1240	0.99	> 2	0.983	> 0.5	0.959	> 10
KNS-81-FD (glioma, adherent)	0.902	> 5	0.972	> 10.2	0.95	> 2	0.913	> 0.064	0.979	> 10.2	0.944	> 5.12	0.969	> 5.12	0.506	262	0.95	> 2	0.963	> 0.5	0.868	> 10
KURAMOCHI (ovary, adherent)	0.948	> 5	0.984	> 10.2	0.952	> 2	0.473	0.00335	0.978	> 10.2	0.864	> 5.12	0.972	> 5.12	0.884	> 4000	0.962	> 2	0.984	> 0.5	0.984	> 10
L-428 (Hodgkin lymphoma, suspension)	0.991	> 5	0.985	> 10.2	0.973	> 2	0.92	> 0.064	0.99	> 10.2	0.812	2.34	0.992	> 5.12	0.993	> 4000	0.993	> 2	0.99	> 0.5	0.957	> 10
